The campaign covered roughly 310,000 compounds. About 2,200 (0.71%) showed an effect of 50% or more. Effects have a minus sign here. This is one part of the list.
Target: human ether-à-go-go-related gene (hERG) potassium channel (human, UniProt Q12809)
Assay: primary screen, population patch clamp on CHO cells stably expressing hERG

human ether-à-go-go-related gene (hERG) potassium channel, sequence (Q12809 whole entry, looked up): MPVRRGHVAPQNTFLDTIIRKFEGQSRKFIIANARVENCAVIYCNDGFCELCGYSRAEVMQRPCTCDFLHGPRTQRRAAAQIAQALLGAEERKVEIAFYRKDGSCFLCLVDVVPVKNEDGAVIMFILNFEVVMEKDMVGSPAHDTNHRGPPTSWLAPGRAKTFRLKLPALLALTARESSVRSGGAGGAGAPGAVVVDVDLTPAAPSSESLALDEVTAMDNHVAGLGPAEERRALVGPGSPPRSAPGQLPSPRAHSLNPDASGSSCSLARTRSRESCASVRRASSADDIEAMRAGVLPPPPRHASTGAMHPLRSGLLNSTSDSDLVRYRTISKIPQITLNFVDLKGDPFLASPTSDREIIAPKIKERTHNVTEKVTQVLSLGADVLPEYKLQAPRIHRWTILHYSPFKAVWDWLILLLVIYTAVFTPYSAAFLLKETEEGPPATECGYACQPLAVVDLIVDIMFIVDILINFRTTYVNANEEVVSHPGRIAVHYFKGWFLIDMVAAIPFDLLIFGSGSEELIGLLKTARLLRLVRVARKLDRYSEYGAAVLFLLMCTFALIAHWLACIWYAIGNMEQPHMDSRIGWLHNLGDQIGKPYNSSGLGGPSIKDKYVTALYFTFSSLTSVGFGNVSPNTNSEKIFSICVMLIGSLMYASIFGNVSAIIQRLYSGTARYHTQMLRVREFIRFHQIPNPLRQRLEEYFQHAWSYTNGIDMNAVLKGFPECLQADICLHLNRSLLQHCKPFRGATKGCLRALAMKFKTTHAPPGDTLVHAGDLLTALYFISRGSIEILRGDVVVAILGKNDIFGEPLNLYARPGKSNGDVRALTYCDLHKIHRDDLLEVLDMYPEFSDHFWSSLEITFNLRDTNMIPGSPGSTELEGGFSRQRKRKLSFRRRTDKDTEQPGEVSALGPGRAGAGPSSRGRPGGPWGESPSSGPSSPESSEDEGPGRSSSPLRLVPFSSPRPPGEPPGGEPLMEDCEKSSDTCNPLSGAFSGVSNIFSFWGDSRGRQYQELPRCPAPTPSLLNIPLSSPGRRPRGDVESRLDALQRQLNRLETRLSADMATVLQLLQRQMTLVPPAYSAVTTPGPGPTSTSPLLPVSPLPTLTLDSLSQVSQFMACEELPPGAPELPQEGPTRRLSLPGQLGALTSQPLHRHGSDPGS

Point of comparison: S=C(NCC1CCCO1)N1CCN(c2cccc(Cl)c2)CC1 (centres unmarked), “hERG current change (%, negative = inhibition) at 1uM” value 9.39%. Against it:
- CCOC(=O)c1nc2sc3c(c2c(=O)[nH]1)CCC(C)C3 (centres unmarked) — lower, 6.58%
- O=C(OCC(O)COc1ccccc1)c1ccc([N+](=O)[O-])cc1 (centres unmarked) — higher, 10.3%
- CN(CC(=O)Nc1cccc(F)c1)C(=O)c1cc(=O)[nH]c2ccccc12 — lower, 5.29%
- CCCC(=O)Nc1ccc(Cl)c(NC(=O)c2ccc(Br)o2)c1 — lower, -7.58%
- Cn1c2ccccc2c(=O)c2c(=O)n(Cc3ccco3)c(-c3ccc(Cl)cc3Cl)nc21 — higher, 15.3%
- COc1ccc(C(=O)OCC(=O)N(C)C2CCS(=O)(=O)C2)cc1Br (centres unmarked) — lower, 3.84%
- COc1cc(C)c(CNCCc2c[nH]c3ccccc23)cc1C.O=C(O)C(=O)O — lower, 2.06%
- COc1ccc(NC(=O)c2cncn2-c2ccccc2)cc1 — higher, 18.4%
- CCNS(=O)(=O)c1ccc(NC(=S)NCC2CCCO2)cc1 (centres unmarked) — higher, 14.6%
- Cc1cc(N)n(-c2ccc3ccccc3c2)n1 — lower, 7.74%
- C=CCN1C(=O)CS/C1=N\N=C\c1cccc([N+](=O)[O-])c1 — lower, 8.94%
- CCOP(=O)(OCC)C(Nc1ccccc1)c1ccc2c(c1)OCO2 (centres unmarked) — lower, 3.51%
- CCOc1cc(/C=C/c2nc3ccccc3s2)ccc1OCC(=O)N1CCOCC1 — lower, 2.16%
- CC(C)C1Oc2ccccc2N(CC(=O)N(Cc2ccccn2)CC2CCCO2)C1=O (centres unmarked) — lower, 4.71%
- COc1cc2c(cc1OC)C1(CCCC1)C(N)=C2C#N — higher, 11.4%
- CCc1ccc(NC(=O)CCc2ccc(C)o2)cc1 — higher, 17.4%
- CC(C)Oc1ccc(C(=O)O)c(C(=O)O)c1 — lower, 0.713%
- COCCCNC(=O)c1ccc(CS(=O)(=O)c2ccc(Br)cc2)o1 — lower, 1.99%
- CNC(=O)NC(=O)C(C)OC(=O)c1c(C)noc1C (centres unmarked) — lower, 5.52%
- CC(=O)N1N=C(c2ccccc2)CC1c1ccc(F)cc1 (centres unmarked) — higher, 10.2%
- CCOC(=O)N1CCN(C(=S)NC(=O)c2ccc(F)c(F)c2)CC1 — lower, 2.95%
- CN1CCN(CC(O)Cn2c3ccccc3c3ccccc32)CC1.O=C(O)C(=O)O (centres unmarked) — lower, 8.65%
- COc1ccc(/C=N/NC(=O)CN(C2=NS(=O)(=O)c3ccccc32)c2ccccc2)cc1 — higher, 11.1%
- O=C(CSCc1c(F)cccc1Cl)Nc1cccnc1 — higher, 10.5%
- CN(C)C(=O)c1ccc(-n2cnc3ccccc3c2=O)cc1 — higher, 13.6%
- CCN(c1ccc(OC)cc1)S(=O)(=O)c1nnc(NC(=O)COc2ccc(F)cc2)s1 — lower, 8.23%
- CCC(C)c1ccc(OCC(=O)Nc2ccc(CN3CCOCC3)cc2)cc1 (centres unmarked) — higher, 12.8%
- O=C(O)CSc1nnc(COc2ccc([N+](=O)[O-])cc2)n1-c1ccccc1 — lower, 9.16%
- Cc1ccc(F)cc1NCC(=O)Nc1ccc(Br)cc1 — higher, 14.2%
- CC(=O)SC(C)CC(=O)NCc1ccccc1 (centres unmarked) — higher, 18.2%
- CN=C(c1ccccc1)c1c(C)cccc1C — lower, 6.34%
- CC(C)N(CCCNC(=O)c1ccc(N2CCCC2=O)cc1)Cc1ccccc1 — lower, 9.08%
- COC(=O)C1=C(c2ccc3ccccc3c2)C[C@@H]2CC[C@H]1N2C(=O)N1CCCC1 — higher, 11.4%
- CC(C)(C)c1ccc(CS(=O)(=O)CC2(O)CCN(C(=O)c3cccc(C(F)(F)F)c3)CC2)cc1 — lower, -4.37%
- Cc1ccccc1N=C1NN=C(c2ccccc2F)CS1 — lower, 8.2%
- CN1CCN(CCNC(=O)Cn2c(=O)c3cccn3c3ccc(F)cc32)CC1 — lower, 8.3%
- CC(Sc1nc2ccccc2o1)C(=O)O (centres unmarked) — lower, 6.76%
- CSc1ncccc1C(=O)OCC(=O)NC(N)=O — higher, 11.8%
- Cc1ccccc1-n1c(SCc2ccccn2)nc2n[nH]c(C)c2c1=N — lower, 5.65%
- O=C(Cc1ccc(Cl)cc1)c1c[nH]c(C(=O)NCCCN2CCOCC2)c1 — lower, -7.06%
- CCCCOc1ccc(C(=O)N2CCCC2)cc1 — lower, -0.0678%
- Cc1ccc(OCC(O)CN2CCCC2)cc1 (centres unmarked) — higher, 16.4%
- Clc1ccccc1Nc1ncnc(-n2cccc2)n1 — lower, 0.742%
- Cc1nc(NCCc2ccc(Cl)cc2)c2nnn(Cc3ccccc3)c2n1 — higher, 14.3%
- CC(C)(C)OC(=O)N1CCC(NC(=O)c2[nH]cnc2C(=O)Nc2cccc(Cl)c2)CC1 — lower, 4.09%
- COc1ccc(NC(=O)CNC(=O)Cc2cccc3ccccc23)c(OC)c1 — higher, 10.4%
- CC(C)CCn1c(N2CCC(C(N)=O)CC2)nc2c1c(=O)[nH]c(=O)n2C — higher, 9.76%
- COC(=O)c1cccc(NC(=S)N2CCCCC2)c1 — higher, 11.8%
- COc1ccc2cc(CN(C(=O)Nc3ccccc3OC)C3CCCC3)c(=O)[nH]c2c1 — lower, 0.809%
- CC(NC(=O)CN1CCc2ccccc21)c1ccccc1 (centres unmarked) — higher, 9.82%
- O=c1cc(N2CCCCC2)c(-c2ccccc2)nn1Cc1cccc(Cl)c1 — lower, 1.98%
- CC(C)(C)c1cc(CN2CCC(O)CC2)cc(C(C)(C)C)c1O — lower, -46.8%
- CC(C)=CCC(C)(C)C1OCCN1C(=O)Nc1ccccc1 (centres unmarked) — lower, -5.15%
- CCC(Sc1nc2ncccc2[nH]1)C(=O)N1CCOCC1 (centres unmarked) — lower, -9.13%
- O=C(Nc1ccccc1C(=O)N1CCOCC1)c1cccnc1 — lower, 4.41%
- Cc1ccc(N=Cc2cc(Cl)cc(Cl)c2O)nc1 — lower, -1.54%
- CCOc1cc(N2CCCC2)ccc1[N+](=O)[O-] — lower, 5.99%
- O=C(COC(=O)c1ccc(O)cc1)Nc1cccc(S(=O)(=O)NC2=NCCCCC2)c1 — higher, 10.1%
- CN(C)S(=O)(=O)NCCNc1ccc(C(F)(F)F)cc1[N+](=O)[O-] — lower, 6.51%
- Cc1cc(N2C(=O)c3ccc(C(=O)Nc4ccc(O)cc4C(=O)O)cc3C2=O)no1 — lower, -6.36%
- CNC(=O)c1c(NC(=O)c2ccc(N3C(=O)CCC3=O)cc2)sc2c1CCC(C)C2 (centres unmarked) — lower, 8.24%
- NC(=O)COC(=O)c1cccc(NS(=O)(=O)/C=C/c2ccccc2)c1 — lower, -7.53%
- CCCCC/C=N\NC(=O)Cc1ccc([N+](=O)[O-])cc1 — higher, 16.6%
- CN(CCC#N)S(=O)(=O)c1cc2c3c(c1)CCN3C(=O)CC2 — higher, 31.5%
- CCn1ncc(Cl)c1C(=O)NC(=S)Nc1ccccc1Br — higher, 21.1%
- CN(C)c1cncc(C(=O)O)c1 — lower, 7.94%
- OCCC1CN(Cc2cc(F)ccc2F)CCN1CCCc1ccccc1 (centres unmarked) — lower, -47.2%
- CCCc1cc(=O)[nH]c(-n2[nH]c3c(c2=O)CCCC3)n1 — higher, 11.5%
- Cc1cc(C)c2[nH]c(O)c(N=NC(=O)c3cc4c(s3)CCCC4)c2c1 — higher, 15.5%
- CC(=O)Nc1ccc(-c2csc(Nc3ncccn3)n2)cc1 — lower, -3.78%
- CCCCc1ccc(NC(=O)CSc2nc(=O)n(CCN(C)C)c3c2CCC3)cc1 — lower, 0.557%
- Cc1ccc(NC(=O)c2cc(NC(=O)C3CC=CCC3C(=O)O)ccc2N2CCOCC2)cc1 (centres unmarked) — lower, 8.51%
- CSc1nc(NC(C)(C)C)nc(Oc2ccc(=O)n(C)n2)n1 — lower, -2.14%
- CCOC(=O)C1CCCN(S(=O)(=O)c2cnc(Cl)c(Br)c2)C1 (centres unmarked) — higher, 12%
- CC1CCCC(C)N1C(=O)COC(=O)c1cc([N+](=O)[O-])ccc1N1CCOCC1 (centres unmarked) — lower, 8.73%
- CC(C)CNC(=S)N(CCCN(C)C)Cc1cc2cc3c(cc2[nH]c1=O)OCCO3 — higher, 16.7%
- O=C(NCCSCc1c(F)cccc1Cl)Nc1ccccc1 — higher, 10.6%
- Fc1cccc(NC(=S)N2CCCC2)c1 — lower, 6.95%
- COc1ccc(CC(NC(C)=O)C(=O)NC2CCN(S(=O)(=O)c3ccccc3)CC2)c(OC)c1 (centres unmarked) — higher, 14%
- O=C(c1ccc(N2C(=O)C3CCCCC3C2=O)cc1)N1CCCCC1 (centres unmarked) — lower, 2.72%
- O=C(CCCC(=O)N(CC(=O)NC1CCCCC1)Cc1ccc2c(c1)OCO2)Nc1ccccn1 — lower, -9.09%
- COc1cc(C)ccc1OCC(=O)Nc1ccc2c(c1)OCO2 — higher, 13.1%
- O=C(CSc1nc2ncc(Br)cc2[nH]1)Nc1ccccc1-c1ccccc1 — higher, 23.4%
- Cc1nnc(N/N=C/c2cccc(C(F)(F)F)c2)n1N — higher, 10.6%
- CCCCOc1ccc(CNC(=O)NS(=O)(=O)c2ccc(OCC)cc2)cc1 — higher, 13.4%
- CC(NC(=O)/C=C/c1ccccc1[N+](=O)[O-])C1CC2CCC1C2 (centres unmarked) — higher, 11.1%
- CCOC(=O)C1C(c2ccc(C(=O)O)cc2)NC(=O)NC1(O)C(F)(F)F (centres unmarked) — lower, 6.09%
- COc1ccc(O)c(C(=O)c2cc(C#N)c(=O)n(CC3CCCO3)c2)c1 (centres unmarked) — lower, 4.67%
- CC(C)Cn1c(N)c(C(=O)COC(=O)c2ccccc2F)c(=O)n(C)c1=O — lower, 6%
- CC(C)c1ccc(NC(=O)Cn2c(=O)oc3ccccc32)cc1 — higher, 16.6%
- CN(C(=O)COC(=O)c1cc(NS(=O)(=O)c2cc([N+](=O)[O-])ccc2Cl)ccc1O)C1CCCCC1 — lower, -1.26%
